Measurements as given in the supplement of paper PMC10600219.
Where a name gives a salt, the structure may show the parent alone. In all, about 2,800 compounds were measured (“cell viability relative to vehicle”: median about 0.98, lowest 2% from about 0.45 on). Some of the results follow.

The compounds below were run on NCI-H2228 alectinib-DTP (assay: cell viability relative to vehicle (fraction of vehicle); NCI-H2228 is an ALK-positive lung cancer line and DTP means drug-tolerant persister; higher = less growth inhibition). Settings: 100 nM; treatment time 6 days.
How it was run: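 Parental NCI-H2228 cells and drug-tolerant persister cells (made with 1000 nM of a targeted drug for 13 days) were seeded in 384-well plates. The next day, the 3114-agent TargetMol anti-cancer compound library was added at 100 nM, with DMSO as vehicle. After 6 days, ATP was read with the CellTiter-Glo 3D Cell Viability Assay. Each value is cell viability relative to vehicle-treated cells.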

Compared with O=P(O)(NCCCl)NCCCl [Palifosfamide], O=C(O)CCCc1ccc(N(CCCl)CCCl)cc1 [Chloroambucil] is lower in cell viability: 1.17 for the first, 0.908 for the second.

First: O=C/C=C/c1ccccc1 [Cinnamaldehyde]
Second: O=S(=O)(CC1CS1)c1ccc(Oc2ccccc2)cc1 (stereo not given)
The cell viability of the first is higher: 1.09 for the first, 1.03 for the second.

Compared with N#Cc1nn(-c2c(Cl)cc(C(F)(F)F)cc2Cl)c(N)c1[S+]([O-])C(F)(F)F (stereo not given) [Fipronil], COc1ccc(-n2nc(C(F)(F)F)cc2-c2ccc(Cl)cc2)cc1 is higher in cell viability: 0.905 for the first, 1.21 for the second.

First: CC[C@@]1(O)C(=O)OCc2c1cc1n(c2=O)Cc2cc3ccccc3nc2-1 [(S)-(+)-Camptothecin]
Second: CCc1c2c(nc3ccccc13)-c1cc3c(c(=O)n1C2)COC(=O)[C@]3(O)CC [7-Ethylcamptothecin]
The cell viability of the first is lower: 0.36 for the first, 0.361 for the second.

Going from CN1c2ccccc2C(NCCCCCCC(=O)O)c2ccc(Cl)cc2S1(=O)=O (stereo not given) [Tianeptine sodium] to Cc1c(C(=O)Nc2cccc(C(F)(F)F)c2)cc(-c2ccccc2)n1CCCN1CCOCC1, the cell viability rises from 0.83 to 0.946.

Compared with COC(=O)Nc1nc2ccccc2[nH]1 [Carbendazim], COc1cc(-n2c(=S)[nH]c3ccccc3c2=O)c(Cl)cc1Cl [Mdivi 1] is higher in cell viability: 1 for the first, 1.03 for the second.

Compared with c1cnc(N2CCNCC2)nc1 [2-(1-Piperazinyl)pyrimidine], CN1CCC(c2c[nH]c3ccc(O)cc23)CC1 is higher in cell viability: 0.928 for the first, 0.933 for the second.

First: C[C@H]1CCC2N(C1)C[C@H]1C3CC4[C@@H](CC(=O)C5C[C@@H](O)CC[C@@]54C)C3CCC1[C@]2(C)O (stereo not given in full) [Peiminine]
Second: C#C[C@]1(O)CC[C@H]2[C@@H]3CCC4=CC(=O)CC[C@]4(C)[C@H]3CC[C@@]21C [Ethisterone]
The cell viability of the first is lower: 1.12 for the first, 1.2 for the second.

Compared with CCNC(=O)C[C@@H]1N=C(c2ccc(Cl)cc2)c2cc(OC)ccc2-n2c(C)nnc21 [Molibresib], CCC12C=CCN3CC[C@@]4(c5ccc(OC)cc5N(C)[C@H]4[C@@](O)(C(=O)OC)[C@@H]1OC(C)=O)[C@@H]32 (stereo not given in full) [Vindoline] is higher in cell viability: 1.06 for the first, 1.1 for the second.

First: CC(C)=CCC[C@]1(C)C=Cc2c(O)c3c(c(CC=C(C)C)c2O1)O[C@]12C(=C[C@@H]4C[C@H]1C(C)(C)O[C@@]2(C/C=C(/C)C(=O)O)C4=O)C3=O [Gambogic Acid]
Second: CC(C)=CCC[C@H](C(=O)O)[C@H]1CC[C@]2(C)C3=C(CC[C@@]12C)[C@@]1(C)CCC(=O)C(C)(C)[C@H]1CC3 [β-Elemonic Acid]
The cell viability of the first is lower: 0.943 for the first, 1.2 for the second.

Compared with Cc1ncc(CNC(=O)N(CCCl)N=O)c(N)n1 [Nimustine Hydrochloride], Cc1ccccc1-n1c(Cn2cnc3c(N)ncnc32)nc2cccc(C)c2c1=O is higher in cell viability: 0.963 for the first, 1.07 for the second.

Going from COC(=O)[C@]1(C)CC[C@]2(C)CC[C@]3(C)C4=CC=C5C(=CC(=O)C(O)=C5C)[C@]4(C)CC[C@@]3(C)[C@@H]2C1 [Pristimerin] to CC1=C(O)C(=O)C=C2C1=CC=C1[C@@]2(C)CC[C@@]2(C)[C@@H]3C[C@](C)(C(=O)O)CC[C@]3(C)CC[C@]12C [Celastrol], the cell viability rises from 1.01 to 1.1.

Compared with C[C@H]1CCC/C=C/[C@@H]2C[C@H](O)C[C@H]2[C@H](O)/C=C/C(=O)O1 [Brefeldin A], C/C(=C\c1csc(C)n1)[C@@H]1C[C@@H]2O[C@]2(C)CCC[C@H](C)[C@H](O)[C@@H](C)C(=O)C(C)(C)[C@@H](O)CC(=O)O1 [Epothilone B] is higher in cell viability: 0.0894 for the first, 0.433 for the second.

First: O=C(CBr)c1ccc(O)cc1 [PTP Inhibitor I]
Second: COc1ccc(C(=O)N2CCCC2=O)cc1 [Aniracetam]
The cell viability of the first is lower: 0.976 for the first, 1 for the second.

First: c1c2c(cc3c1OCO3)-c1cc3ccc4c(c3c[n+]1CC2)OCO4 [Coptisine]
Second: COc1cc([C@@H]2c3cc4c(cc3[C@H](O)[C@H]3COC(=O)[C@@H]23)OCO4)cc(OC)c1OC [Picropodophyllin]
The cell viability of the first is higher: 1.06 for the first, 0.997 for the second.

Going from c1c2c(cc3c1OCO3)-c1cc3ccc4c(c3c[n+]1CC2)OCO4 [Coptisine chloride] to COC[C@H]1OC(=O)c2coc3c2[C@@]1(C)C1=C(C3=O)[C@@H]2CCC(=O)[C@@]2(C)C[C@H]1OC(C)=O [Wortmannin], the cell viability falls from 1.1 to 0.978.

Compared with N.N.[Cl][Pt][Cl] [Cisplatin], Clc1ccc([C@]23CNC[C@H]2C3)cc1Cl [Amitifadine hydrochloride] is higher in cell viability: 0.919 for the first, 1.06 for the second.

Compared with O=C(O[C@H]1C[C@H]2CC[C@@H](C1)[N+]21CCCC1)C(O)(c1ccccc1)c1ccccc1 [Trospium chloride], C=C[C@H]1CN2CC[C@H]1C[C@@H]2[C@@H](O)c1ccnc2ccccc12 [Cinchonine] is higher in cell viability: 1.01 for the first, 1.17 for the second.

First: O=C(O)CCCCCCCCCO [10-Hydroxydecanoic Acid]
Second: NCCCNCCCN [Bis(3-aminopropyl)amine]
The cell viability of the first is higher: 1.04 for the first, 0.833 for the second.

Going from C[C@]12CCC(=O)C=C1CC[C@@H]1[C@@H]2C(=O)C[C@]2(C)C(=O)CC[C@@H]12 [Adrenosterone] to C=CC[C@]1(O)CC[C@H]2[C@@H]3CCC4=CC(=O)CCC4=C3C=C[C@@]21C [Altrenogest], the cell viability falls from 1.07 to 0.948.

First: NC(=O)CN1CC(O)CC1=O (stereo not given) [Oxiracetam]
Second: COCC1(CO)C(=O)C2CCN1CC2 (stereo not given)
The cell viability of the first is higher: 1.02 for the first, 0.995 for the second.

Compared with C1=C2CCCN[C@H]2[C@@H]2C[C@H]1[C@H]1CCCCN1C2 [Aloperine], C1CCc2nnnn2CC1 [Pentetrazol] is lower in cell viability: 0.901 for the first, 0.812 for the second.

Going from C/C=C/c1cc(OC)c(OC)cc1OC [alpha-Asarone] to CC(C)(C)c1cc(C(C)(C)C)c2c(c1)C(O)(C(F)(F)F)C(=O)O2 (racemic), the cell viability rises from 0.92 to 1.01.

First: C=CCN1CC[C@]23c4c5ccc(O)c4O[C@H]2[C@@H](OCCOCCOCCOCCOCCOCCOCCOC)CC[C@@]3(O)[C@H]1C5 [Naloxegol oxalate]
Second: CC(=O)OC(C)(C)/C=C/C(=O)[C@](C)(O)[C@H]1[C@H](O)C[C@@]2(C)[C@@H]3CC=C4[C@H](C[C@H](O)C(=O)C4(C)C)[C@]3(C)C(=O)C[C@]12C [Cucurbitacin B]
The cell viability of the first is higher: 0.968 for the first, 0.146 for the second.

First: CN1[C@@H]2CC(O)C[C@H]1[C@@H]1O[C@@H]12 (stereo not given in full) [Scopine]
Second: CC1(C)CC(O)CC(C)(C)N1[O] [Tempol]
The cell viability of the first is lower: 0.85 for the first, 1.11 for the second.
